Data: PMC4207660, “Identification and Characterization of Hundreds of Potent and Selective Inhibitors of Trypanosoma brucei Growth from a Kinase-Targeted Library Screening Campaign” (PLoS Neglected Tropical Diseases, 2014)
In brackets after ≈: the same amount, converted by molar mass.

Legend:
[1] = system: T. brucei brucei parasites (Lister 427 strain); experiment: Dose response growth inhibition assay (resazurin, 72 h); assay type: cell-based; details: Trypanosoma brucei; T. b. brucei growth inhibition; read-out: Tbb pEC50 (converted)
Description: Greiner sterile black clear bottom 384-well assay plates were pre-dispensing with 200 nL of compound in each well, from master plates at 1 mM (100% DMSO) containing selection from the GSK compound collection. Controls of 0% response (control 1, 200 nL of 100%DMSO) and 100% response (control 2, 200 nL of 1 mM pentamidine) were included in each assay plate in columns 6 and 18, respectively. Plates containing 200 nL of 100% DMSO were included randomly in the assay, to assess quality through all process. […] After this period, 10 µL of 200 µM resazurin solution in prewarmed HMI-9 were added to each well, and plates were allowed to incubate 2 hours more prior fluorescence reading in a Wallac EnVision Multilabel Plate Reader (Perkin-Elmer). Raw fluorescent data from the Envision plate reader were uploaded into GSK HTS database (ActivityBase). Activity of each well was normalized as a percentage of inhibition per-plate basis using the following equation: [drawing 1]
For dose-response experiments, serial compound dilutions of selected hits from the primary campaign were plotted against compound concentration. Dose response master plates were prepared by 3-fold dilutions (starting with 10 mM DMSO stock solutions), providing 11 concentrations. From these master plates, 200 nL per well was stamped in final assay plates, including the same controls describe in the primary single shot assay. […]

[2] = molecular target: T1, Human Serum Albumin (HSA) (Homo sapiens, UniProt P02768); experiment: Protein binding assay (HPLC stationary phase), HSA; assay type: in vitro ADME; details: Measured
T1 construct: purchased Chiral Technologies, France
Description: Chemically bonded Human Serum Albumin (HSA) and Alpha-1-acidglycoprotein HPLC stationary phases (Chiral Technologies, France) were used for measuring compounds' binding to plasma proteins, applying linear gradient elution up to 30% iso-propanol. The run time was 6 min, including the re-equilibration of the stationary phases with the 50 mM pH7.4 ammonium acetate buffer. The obtained gradient retention times were standardised using a calibration set of mixtures as described in the references. The average standard error of the assay depends on the binding strength and kinetics of the compounds.

[3] = ChromlogD assay
Description: The Chromatographic Hydrophobicity Index (CHI)[22] values were measured using reversed phase HPLC column (Luna C18 (2), Phenomenex, UK) with a fast acetonitrile gradient at starting mobile phase of pH = 7.4. CHI values are derived directly from the gradient retention times by using a calibration line obtained for standard compounds. The CHI value approximates to the volume % organic concentration when the compound elutes. […] The average error of the assay is ±3 CHI unit or ±0.25 ChromlogD.

[4] = CLND kinetic solubility assay; assay type: physicochemical; details: pH 7.4, aqueous buffer, kinetic from dmso stock; Measured; read-out: Aq Sol
Description: 5 µL of 10 mM DMSO stock solution was diluted to 100 µL with pH 7.4 phosphate buffered saline, equilibrated for 1 hour at room temperature, filtered through Millipore MultiscreenHTS-PCF filter plates (MSSL BPC). The filtrate was quantified by suitably calibrated flow injection Chemi-Luminescent Nitrogen Detection.

[5] = system: HepG2 cells; experiment: Cytotoxicity assay (Cell Titer Glo, 48 h); details: HepG2 cytotoxicity
Description: This assay was used as selectivity assay, and selected hits from the primary were test in dose response concentration against HepG2 in order to identify the level of host cell cytotoxicity. Dose response starting at 10 mM and with 3-fold dilutions for 11 points, were made in 1,536-well master plates. 50 nL per well from them were stamped in final assay plates. The human biological samples were sourced ethically and their research use was in accord with the terms of informed consent.
Cell density was adjusted to 60,000 cells/mL as working concentration in prewarmed Eagle's MEM medium. Seeding density was be checked to ensure that new monolayers are not more than ∼ 50% confluent at the time of seeding (typically 3,000 cells per well), before completing preparation of plates. […] Viability was determined by Cell Titer Glo Kit (Promega) according to manufacturer's instructions: briefly, reconstituted Cell Titer Buffer was equilibrated to room temperature prior its use and 5 µL per well were dispensed with a Multidrop Combi Reagent Dispenser. Contents were mixed on a plate orbital shaker and incubated for 10 min at room temperature, to allow the signal to stabilize before luminescence reading on ViewLux Plate Reader (Perkin-Elmer).
Raw Luminescence data from the ViewLux reader were uploaded into GSK HTS database (ActivityBase). […]

[6] = molecular target: Cytochrome P450 (CYP450) (Homo sapiens, UniProt P08684); experiment: Cytochrome P450 inhibition profile; assay type: in vitro ADME; details: Measured; CYP3A4, VG substrate; read-out: CYP3A4VG pXC50 (converted)
Description: The P450 inhibition profile of the inhibitors was determined as previously described.

Row | Compound | EC50 [1] [nM] | HSA % binding [2] [%] | PFI [3] | solubility kinetic at 1 h [4] [µM] | HepG2 pTC50 [5] | IC50 [6] [nM]
1 | NCC(Cc1ccccc1)C(=O)Nc1ncc(-c2c[nH]c3ncccc23)s1 (centres unmarked) [NEU-0001239] | 126 | – | – | – | – | –
2 | CN(C)Cc1ccc(-c2cc3c(-c4cnn(C)c4)ccnc3[nH]2)cc1 [NEU-0001200] | – | 95.7 | 6.88 | – | – | –
3 | O=C1Nc2ccc3ncsc3c2/C1=C/Nc1ccc2c(c1)CS(=O)(=O)C2 [NEU-0001179] | 126 | – | 5.64 | 16 (≈ 6.14 µg/mL) | <4 | 2510
